Reference: PubChem BioAssay AID588855 (National Center for Advancing Translational Sciences (NCATS), 2011)
Hit rate of the full screen: of about 410,000 compounds, about 5,000 (1.2%) were called active. The inconclusive results got no clear call from the source; some entries with a clear call stand among them for comparison. Calls come from the whole dose curve; as a rule, active = well fitted inhibition curve with a large enough effect; inconclusive = small, poorly fitted or top-dose-only effect; inactive = no such curve, though single readings can be large or run the other way. Potencies beside an inconclusive call are fits to weak or partial responses and may not hold up.

Assay: qHTS for Inhibitors of TGF-b; note: nearly all actives have a fitted effect of over 65% in size
Details: HepG2 CAGA-GFP TGF-b/SMAD3 reporter, GFP fluorescence, 18 h, TGF-beta stimulated, 500 pg/mL final; series mostly up to 46.1 µM
Summary of the method: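 HEPG2 CAGA-GFP reporter cells (1000/well, DMEM with 1% FBS) received compounds, then recombinant TGF-beta at 500 pg/mL final for 18 hours at 37 degrees C. Per-cell GFP summed per well was normalised to unstimulated and stimulated DMSO controls before curve fitting.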
Potency is the fitted concentration of half-maximal effect; tags give direction and shape of the fitted curve.

Row | SMILES | Potency
1 | CCc1nc2c(OCc3ccc(C#N)cc3)cccn2c1N(C)C(=O)c1ccc(C)cc1 | inactive
2 | COCOCCn1cc(CN2CCS(=O)(=O)N(Cc3ccc(-c4ccc(Cl)c(Cl)c4)cc3)C(C(C)C)C2=O)nn1 (centres undefined) | inconclusive: 25.1 µM [inhibitor, single point]
3 | CC(C)(C)CC(C)(C)NCC(O)COCCOc1ccc(Br)cc1 (centres undefined) | inconclusive: 35.5 µM [inhibitor, single point]
4 | CCCn1cnc2c(Sc3c([N+](=O)[O-])ncn3C)nc(N)nc21 | inactive
5 | CN(NC(=O)/C=C/C(=O)O)c1ncc(C(F)(F)F)cc1Cl | inactive
6 | Cc1ccc(Sc2sc(=O)n(C)c2S(=O)(=O)c2ccc(C)cc2)cc1 | inactive
7 | Cc1cc(C)cc(OCCCn2c(CCNC(=O)C3CCCCC3)nc3ccccc32)c1 | inconclusive: 10 µM [inhibitor, partial curve]
8 | COc1ccc2o/c(=N/NC(=O)c3cccs3)c(C(N)=O)cc2c1 | inactive
9 | CCC(C)Nc1ncnc2c1cnn2Cc1ccc(Cl)cc1 (centres undefined) | inconclusive: 22.4 µM [inhibitor, partial curve, poor fit]
10 | CC(C)CN(C(=O)CSc1nc(-c2ccccc2)cn1N)c1c(N)n(Cc2ccccc2)c(=O)[nH]c1=O | inconclusive: 7.08 µM [inhibitor, partial curve, poor fit]
11 | Cc1ccc(CNc2nc(NC(C)C)nc3ccsc23)c(C)c1 | inconclusive: 22.4 µM [inhibitor, single point]
12 | CCCc1ccc(S(=O)(=O)N2CCC(Oc3ccc(-n4cnnn4)cc3)CC2)cc1 | inactive
13 | CNC(=O)c1ccc(Nc2nnc(-c3ccc(C)c(S(=O)(=O)N(C)C)c3)c3ccccc23)cc1 | inconclusive: 17.8 µM [inhibitor, single point]
14 | CC(C(=O)Nc1ccc(Cl)cc1Cl)N1C(=O)NC2(CCCCCCC2)C1=O (centres undefined) | inconclusive: 35.5 µM [inhibitor, single point]
15 | COc1ccc(CCN2CC(C(=O)NCCN3CCCC3=O)CCC2=O)cc1 (centres undefined) | inactive
16 | Cc1cccc(-n2nc3c(c2NC(=O)C(C)C)CSC3)c1 | inactive
17 | COc1ccccc1NS(=O)(=O)c1ccc(C)c(C(=O)N2CCN(c3ccc(O)cc3)CC2)c1 | inconclusive: 5.62 µM [inhibitor, single point]
18 | CCOC(=O)CC1c2cc(OCC)c(OCC)cc2CCN1C(=O)Nc1cccc(Cl)c1 (centres undefined) | inactive
19 | c1ccc(-n2nnnc2NCCc2c[nH]c3ccccc23)cc1 | inactive
20 | CCc1ccccc1NC(=O)CSc1nc(-c2ccccc2OC)nc2c1Cc1c(CO)cnc(C)c1O2 | inactive
21 | CC(=O)c1cc(C(=O)Nc2cc(C)cc(C)c2)c2ccccn12 | inactive
22 | COc1cc(F)ccc1S(=O)(=O)n1c(C)nc2ccccc21 | inconclusive: 35.5 µM [inhibitor, partial curve, poor fit]
23 | COc1ccc2[nH]c3c(c2c1)CCN1C(=O)C(CC(=O)NCCc2ccccn2)C[C@H](C(=O)N2CCCCC2)[C@@]31CCc1ccccc1 (some centres undefined) | inconclusive: 35.5 µM [inhibitor, single point]

Row | SMILES | Potency
24 | COc1ccc(NC(=O)CSc2nnnn2C)c([N+](=O)[O-])c1 | inactive
25 | COC(=O)c1sc2cccc(F)c2c1S(=O)(=O)N1CCN(c2ccc(F)cc2)CC1 | inconclusive: 22.4 µM [inhibitor, partial curve]
26 | Cc1ccc(S(=O)(=O)N(C)CC(=O)NCCCc2ccccc2)cc1 | inconclusive: 17.8 µM [inhibitor, single point]
27 | O=C(N/N=C/c1ccc([N+](=O)[O-])o1)c1ccc2c(c1)OCO2 | active: 15.8 µM
28 | CC(=O)c1ccc(N2CCN(Cc3cc(=O)n4c(-c5ccccc5)csc4n3)CC2)cc1 | inconclusive: 14.1 µM [inhibitor, partial curve, poor fit]
29 | COc1cc2c(cc1OC)C(COc1cccc(C(F)(F)F)c1)NCC2 (centres undefined) | inactive
30 | Nc1nnc(SCC(=O)Nc2ccc(F)c(Cl)c2)n1-c1ccccc1 | inactive
31 | COc1cc(OC)c(NC(=O)NCc2ccc3c(c2)CCN3C(=O)c2ccccc2)cc1Cl | inconclusive: 0.891 µM [inhibitor, full curve, poor fit]
32 | COc1cccc(OC)c1NC(=O)c1ccc(-c2cc(Cl)ccc2Cl)o1 | inconclusive: 11.2 µM [inhibitor, single point]
33 | COc1cccc(-c2ccc(NC(=O)C3CCCN(Cc4cccc(C)n4)C3)cc2)c1 (centres undefined) | inconclusive: 11.2 µM [inhibitor, single point]
34 | COc1cc2c(cc1OC)CN(C(=S)Nc1c(C)cccc1C)CC2 | inconclusive: 2.51 µM [inhibitor, full curve, poor fit]
35 | O=C(Nc1ccc(F)c(Cl)c1)C1Cc2c(-c3cccc(F)c3)ccnc2O1 (centres undefined) | inconclusive: 22.4 µM [inhibitor, single point]
36 | Cc1ccc(C2=N/C(=C/c3cccs3)C(=O)N2Nc2ccccc2)cc1 | inconclusive: 35.5 µM [inhibitor, single point]
37 | Cc1cccc(/C=N/NC(=O)c2cc(Br)ccc2OCc2ccccc2)n1 | inconclusive: 35.5 µM [inhibitor, single point]
38 | Cc1cc(NC(=O)CCC(=O)N(c2ccccc2)C(C)C(=O)NC2CCCC2)no1 (centres undefined) | inactive
39 | O=C(Nc1ccc(CN2CCOCC2)cc1)c1ccc(F)cc1 | inactive
40 | COc1ccc(C2NC(=O)NC(C)=C2C(=O)OC2CCC(C)CC2)cc1 (centres undefined) | inconclusive: 35.5 µM [inhibitor, single point]
41 | CSC1=C(C#N)C(c2ccc(Cl)cc2)C2=C(CC(C)(C)CC2=O)N1 (centres undefined) | active: 11.2 µM
42 | CCCCc1nc(N2CCN(C(=O)c3ccco3)CC2)c(C#N)c2c1CCCC2 | inconclusive: 35.5 µM [inhibitor, single point]
43 | CN1CCN(c2nc3c(S(=O)(=O)c4ccc(Br)cc4)nnn3c3ccsc23)CC1 | inactive
44 | O=C(c1coc(=O)c(Br)c1)N1CCOCC1 | inactive
45 | CC1CCCC(C)N1C(=O)COC(=O)Cc1ccc(Cl)cc1 (centres undefined) | inactive
46 | CCSc1nnc(NC(=O)[C@@H](NC(=O)c2cccc(C)c2)C(C)C)s1 | inactive

Row | SMILES | Potency
47 | CCN(CC)S(=O)(=O)c1cccc(C(=O)N/N=C/c2ccc(O)c(O)c2O)c1 | inconclusive: 20 µM [inhibitor, single point]
48 | Cn1c(-c2ccccc2)c(/C=N/NC(=O)c2ccc(O)cc2)c2ccccc21 | inconclusive: 35.5 µM [inhibitor, partial curve, poor fit]
49 | Cc1cccc(NC(=O)c2c(F)c(F)c(F)c(F)c2F)c1 | inactive
50 | Cc1cccc(OCC(=O)Nc2ccc(C(=O)Nc3ccccc3C(=O)O)cc2)c1C | inconclusive: 35.5 µM [inhibitor, partial curve, poor fit]
51 | O=C(Cn1cc(SCc2ccc(C(F)(F)F)cc2)c2ccccc21)N1CCCC1 | inconclusive: 3.55 µM [inhibitor, full curve, poor fit]
52 | N#C/C(=C(/O)c1cc2ccccc2o1)c1nc2ccccc2s1 | inconclusive: 3.55 µM [inhibitor, single point]
53 | COc1ccc(CNC(=O)/C(C)=C\C(=O)O)cc1 | inactive
54 | Cc1ccccc1C(=O)N1CCC(C(=O)NCCc2ccc(S(N)(=O)=O)cc2)CC1 | inconclusive: 35.5 µM [inhibitor, single point]
55 | O=C(CN1C(=O)c2ccccc2C1=O)NC(Cc1ccccc1)C(=O)O (centres undefined) | inconclusive: 22.4 µM [inhibitor, single point]
56 | CN(C)CCNC(=O)c1cccc(-c2cnc3c(NC=O)cc(-c4ccccc4F)cn23)c1 | inconclusive: 35.5 µM [inhibitor, single point]
57 | CC1CCN(C(=O)COC(=O)c2cccc(S(=O)(=O)N(C)c3ccccc3)c2)CC1 | inconclusive: 22.4 µM [inhibitor, partial curve, poor fit]
58 | O=c1[nH]c(C2CCN(S(=O)(=O)c3ccccc3)CC2)nc2c1nnn2Cc1ccc2c(c1)OCCO2 | inconclusive: 35.5 µM [inhibitor, single point]
59 | CCOC(=O)N1CCN(C(=O)CN(C2CCCCC2)S(=O)(=O)c2ccc(C)cc2)CC1 | inactive
60 | COc1ccccc1C1CC(c2ccc(Br)cc2)=NN1C(=O)c1cccnc1 (centres undefined) | inactive
61 | COc1cccc(Cn2cccc(NC(=O)Nc3ccc(C#N)cc3)c2=O)c1 | inconclusive: 14.1 µM [inhibitor, single point]
62 | O=C(C1=C[C@H](c2ccc3c(c2)OCO3)C[C@H](OCCCCO)O1)N1CCN(Cc2ccccc2)CC1 | inactive
63 | COc1ccc(-c2cc(C(=O)NCc3ccc(F)cc3)c3c(-c4ccc(F)cc4)[nH]nc3n2)cc1OC | inconclusive: 3.98 µM [inhibitor, full curve, poor fit]
64 | COc1ccc(NC(=O)CSc2oc(-c3ccco3)nc2S(=O)(=O)c2ccc(Br)cc2)c(OC)c1 | inactive
65 | CCc1ccc2oc(-c3cc(NC(=O)C(C)C)cc(C)c3O)nc2c1 | inactive
66 | O=C(NCc1nc2ccccc2[nH]1)C1=C[C@H](c2ccc3c(c2)OCO3)C[C@H](OCc2ccc(CO)cc2)O1 | inconclusive: 15.8 µM [inhibitor, single point]
67 | CC(C)[C@H](NC(=O)OCc1ccccc1)C(=O)OCC(=O)N1CCN(c2ccccc2)CC1 | inactive
68 | CCc1ccccc1Nc1nc(N)nc(CSCC(=O)Nc2ccc(C)c(C)c2)n1 | inactive
69 | O=C(COc1ccccc1Cl)Nc1cc(Cl)ccc1O | inconclusive: 0.398 µM [inhibitor, full curve, poor fit]
